# Measurements: the supplement of paper PMC3334620
# In all, about 33,000 sequences were measured (“E-score (-0.5 to 0.5)”: median about -0.054, highest 2% from about 0.35 on). The list shows a part of the results.
# Target: T1, Stb5 (UniProt P38699)
# T1 sequence: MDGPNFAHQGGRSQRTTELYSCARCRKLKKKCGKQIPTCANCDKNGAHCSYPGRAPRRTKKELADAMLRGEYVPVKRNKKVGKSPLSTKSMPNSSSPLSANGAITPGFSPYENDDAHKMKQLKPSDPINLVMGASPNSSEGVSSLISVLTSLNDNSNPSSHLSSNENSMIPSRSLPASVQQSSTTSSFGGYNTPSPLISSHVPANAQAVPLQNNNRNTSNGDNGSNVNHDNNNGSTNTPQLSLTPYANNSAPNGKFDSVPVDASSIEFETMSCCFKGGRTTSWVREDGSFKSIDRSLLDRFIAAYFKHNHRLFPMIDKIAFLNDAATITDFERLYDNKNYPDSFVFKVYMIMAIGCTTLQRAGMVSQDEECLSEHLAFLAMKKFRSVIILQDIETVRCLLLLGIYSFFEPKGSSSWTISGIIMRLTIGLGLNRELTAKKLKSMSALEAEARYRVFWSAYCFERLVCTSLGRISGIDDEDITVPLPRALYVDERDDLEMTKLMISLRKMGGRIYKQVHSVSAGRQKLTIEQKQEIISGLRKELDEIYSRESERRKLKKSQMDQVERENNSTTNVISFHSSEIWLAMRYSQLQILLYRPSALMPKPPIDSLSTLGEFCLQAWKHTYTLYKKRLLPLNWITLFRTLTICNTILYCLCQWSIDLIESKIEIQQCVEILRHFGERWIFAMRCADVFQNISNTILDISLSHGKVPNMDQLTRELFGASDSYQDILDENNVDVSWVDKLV
# Assay: PBM E-score (8-mer binding enrichment) (E-score (-0.5 to 0.5)); higher = stronger / more preferred TF binding; most listed sequences are background and not binding sites
# Conditions: protein concentration: 200 nM; construct: GST-full length
# Summary of the method: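 Yeast transcription factors, full-length or as DNA-binding domains, were expressed with a GST tag using PURExpress in vitro transcription/translation. At about 100-200 nM they were applied to universal all-10-mer Agilent arrays, double-stranded by primer extension on fresh or once-stripped slides. Fluorescent anti-GST detected bound protein, and masliner normalised the scans. E-scores for ungapped eight-base words, pooled with reverse complements, came from the Universal PBM Analysis Suite.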
row,Sequence,PBM E-score
1,GTCGAGGA,-0.246
2,ACCATGCC,0.0581
3,AACCACAG,-0.119
4,CAGGCCGG,0.11
5,GCCGTACC,0.285
6,ACGAAATA,-0.0345
7,GCACAGTA,-0.146
8,CGACTTTC,0.112
9,CATGGGAC,-0.0822
10,AACGGTCA,0.23
11,GCAGGGCC,-0.0449
12,GATGGCAA,-0.0254
13,GGACGGAC,0.359
14,AGTCCTTG,-0.184
15,CGCCGCTA,0.412
16,AGTGCCCA,0.0998
17,TAAAGCTA,-0.309
18,ATCGTATC,-0.175
19,GCAAGAAA,0.0635
20,AACTGCCG,0.264
21,CCGAGACG,-0.00753
22,CGCAAGAA,-0.0944

row,Sequence,PBM E-score
1,AATACCGG,0.417
2,CGCTCAGA,0.0527
3,CCTTCGGA,0.148
4,AGCGCATA,-0.0709
5,AACTGCCA,-0.186
6,CTTAGGTC,-0.0214
7,ATCCCACG,-0.0572
8,AGCATACG,-0.0276
9,CCTATAGC,-0.0839
10,ACGTCATA,-0.0901
11,CTAATATC,-0.00779
12,GCCAGATA,-0.0616
13,CCGTCAGC,0.0956
14,ACCATCAA,-0.205
15,CTCACTAA,-0.158
16,TCGACCAA,-0.271
17,GTGGCGTA,-0.0392
18,TATTCCAA,-0.198
19,CTGTTACC,0.172
20,GCGTAGAC,-0.143
21,ATGTTGTG,-0.0319
22,ACCGGCGC,0.336

row,Sequence,PBM E-score
1,ACCGCCAA,0.276
2,AGGAACTG,-0.197
3,CATTCTTA,-0.154
4,CGCCAAAA,0.00806
5,ACTTCGAC,-0.0543
6,CATGCTGG,-0.285
7,ATCCAAGA,-0.19
8,CTCTGATC,-0.204
9,GTGGAATA,-0.0368
10,ACTCCGCG,0.357
11,GACGAGCA,-0.21
12,ACGACAGA,-0.266
13,TGAGATAA,-0.0775
14,ACCAAAAC,-0.0352
15,TAACACTA,0.00416
16,ACCGGGAG,0.166
17,ATGTCTCC,0.257
18,AGGACCGG,0.306
19,GGACCGGA,0.278
20,CGTGAAGA,-0.0731
21,CTGGACGC,-0.144
22,GAATATCA,0.118

row,Sequence,PBM E-score
1,CCTTCTTA,-0.131
2,GGCAGCCA,-0.118
3,ATAAGATC,-0.0939
4,CACAACCG,-0.0538
5,CAGATCCC,0.0468
6,CTACTTGA,-0.202
7,ATGTGGAC,-0.126
8,ATGGACGA,-0.0936
9,GCTCTAGA,-0.0477
10,CCCCGGGA,0.268
11,AGAAGATC,-0.145
12,AAACCACC,0.244
13,CCTGCGGC,0.183
14,ACTACCCA,-0.293
15,AGCAACAT,-0.0631
16,CCGAGCTC,-0.0734
17,CCAGTGCA,-0.29
18,AGGTCATA,-0.0441
19,ACATAAAT,-0.052
20,CAGTCGAG,-0.233
